The labels stand for the following.
B1: CPEB3 Ribozyme (parent)
chain: UAACAGGGGGCCACAGCAGAAGCGUUCACGUCGCAGCCCCUGUCAGAUUCUGGUGAAUCUGCGAAUUCUGCUGUAUAUCUC

The source gives no read counts; variants with many changes may rest on few reads.

The variants in this series derive from B1. As to the kind of experiment: self-cleavage, relative activity (ratio to wild type); higher = more cleavage; in vitro, sequencing. The method, boiled down:
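Relative activity was defined as the cleaved/total read fraction for a variant divided by the same fraction for the unmutated ribozyme. CPEB3 self-cleaving ribozyme libraries were made by rounds of error-prone PCR, barcoded, and transcribed in vitro with T7 RNA polymerase for 5 hours at 37°C, and cleavage ran through transcription plus a 15 min DNase I step before EDTA. Illumina sequencing of template-switched reverse transcripts gave the reads, and DNA sequencing mapped the barcodes. Averages come from three batches, using variants with at least 5 reads.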
On to UAACAGGGGGCCACAGCAGAAGCGUUCACGCCGCAGCCCCUGUCAGGUACUGGUGGAUCAGCGAAUUCUGCUGUAUAUCUC, for which the self-cleavage was 0.14.

As to UAACAGGGGGCCACAGCAGAAGCGUUCACGCCGCAGCCCCUGUCGGAUUCUGGAGGAUCUGCGGAUUCUGCCGUACAUCUC, the self-cleavage stood at 0.12. As for UAACAGGGGGCCACAGCAGAAGCGUUCACGCCGCAGCCCCUGUCGGAUUCUGGUGAAUCUGCGAAUCCUGCUGUAUACCUC, the self-cleavage was 0.28. The same measure for UAACAGGGGGCCACAGCAGAAGCGUUCACGACGCAGCCCCUGUCAGAUUCUGGAGAAUCUGCGAAUCCUGCUGUAUAUCUC: 0.16. As to UAACAGGGGGCCACAGCAGAAGCGUUCACGACGCAGCCCCUGUCAGAUCCAGGUGAAUAUGCGAAUACUGCUGUAUACCUC, the self-cleavage was 0.08. UAACAGGGGGCCACAGCAGAAGCGUUCACGACGCAGCCCCGGUCAGAUUCUGGUGAAUCUGCGAAUUCUGCUGUAAAUCUC: the self-cleavage is 0.16. Under UAACAGGGGGCCACAGCAGAAGCGUUCACGCCGCUGACCCUGUCAGAUUCUGGUGAGUCCGCGAAUUCUGCUGUAUAUCUC stands 0.12; under UAACAGGGGGCCACAGCAGAAGCGUUCACGCCGCAGCCCCUGUCAGAUUCUGGUGGAUCUGCCCAUUCAGCUGUAUAUCUC, 0.25; under UAACAGGGGGCCACAGCAGAAGCGUUCACGCCGCAGCCCCUGUCAGUUUCUGGUGAACCAGCGAAUUCUGCUGUAUAUCUC, 0.09. As to UAACAGGGGGCCACAGCAGAAGCGUUCACGCCGCAGCCCCUGUCAGAUUCUGGUGAAUCUGCGAAUUCUGCUGUCUACCUC, the self-cleavage turned out to be 0.69. Under UAACAGGGGGCCACAGCAGAAGCGUUCACGCCGCUGCCCCUGUCAGAUUCUGGUGAUUCUGCGAAUUCUGCUGUAUAUCUC stands 0.14; under UAACAGGGGGCCACAGCAGAAGCGUUCACGCCGCAGCCCCUGUCAGAUUCUGGUGGAUCAGCGAGUUCUGCUGUAUACCUC, 0.11. Turning to UAACAGGGGGCCACAGCAGAAGCGUUCACGACGCAGCCCCUGACAGAUUCUGGCGAAACUGCGAAUUCUGCUGUAUAUCUC, the self-cleavage was found to be 0.31. Under UAACAGGGGGCCACAGCAGAAGCGUUCACGCCGCAGCCCCUGUCAGAUUCUGGUGAAUCUGCGAGUUCUGCUGUAUAUGCC stands 0.39. The same measure for UAACAGGGGGCCACAGCAGAAGCGUUCACGACGCAGCCCCUGCCAGAUUCUGGUGAAUCUGCGAAGUCCGCUGUAUAUCUC: 0.15.

For the variant UAACAGGGGGCCACAGCAGAAGCGUUCACGCCGCAGCCCCUGUCAGAUUCUGGUGGAUCUGCGAAUUCUGCUGUAUAUCCC, the self-cleavage was 0.49. The same measure for UAACAGGGGGCCACAGCAGAAGCGUUCACGCCGCUGCCCCAGACAGAUUCUGGUGAAUCUGCGAAUCCUGCUGUAUAUCUC: 0.12. Under UAACAGGGGGCCACAGCAGAAGCGUUCACGCCGCAGCCCCUGUCAGAUUCUGGUGAAUCUGCGUAUUCCGCUGUAUAUCUC stands 0.27; under UAACAGGGGGCCACAGCAGAAGCGUUCACGACGCAGCCCCUGCCAGAUUCUGGUGAAUCUGCGAAUUCAGCUGUAUAUCAC, 0.09; under UAACAGGGGGCCACAGCAGAAGCGUUCACGCCGCUGCCCCUGUCUGAUUCUGGUGAAUCUGCGAAUUCUGCUGUAUAUCUC, 0.15. Under UAACAGGGGGCCACAGCAGAAGCGUUCACGACGCAGCCCCUGUCAGAUUCGGGUGAAUCUGCGAAUUCUACUGUAUAUCUC stands 0.22; under UAACAGGGGGCCACAGCAGAAGCGUUCACGCCGCAGCCCCUGUCAGAUUCUGGUGAGUCUGCGAAUUCUGCUAUAUACCUC, 1.25; under UAACAGGGGGCCACAGCAGAAGCGUUCACGACGCAGCCCCUGUCAGAUUCUGGUGAAUCUGCGAAAUCUGCUGCAUAUCUC, 0.45. Regarding UAACAGGGGGCCACAGCAGAAGCGUUCACGACGCAGCCCCUGUCAGAUUCCGGUGAAUCAGCGAAUUCUGCUGUAUAUCUC, the self-cleavage amounted to 0.2. On to UAACAGGGGGCCACAGCAGAAGCGUUCACGCCGCAGCCCCUGUCAGAUUCUGGUGGAUCUGCGAAUUCUGCUCUAUAUCUC, for which the self-cleavage is 1.07. With UAACAGGGGGCCACAGCAGAAGCGUUCACGCCGCAGCCCCUGUCAGAUUCUGGUGAAUCUGCGUAUUCUGCUGUAUACCUC, the self-cleavage was 0.17. With UAACAGGGGGCCACAGCAGAAGCGUUCACGACGCAGCCCCUGUCAGAUUCUGGGGAGUCUGCGAAUUCUGCUGUAUAUCUC, the self-cleavage is 0.23. Regarding UAACAGGGGGCCACAGCAGAAGCGUUCACGCCGCGGCCCCUGUCAGAUUCUGGUGAAUCUGCAGAUUCUGCUGUAUAUCAC, the self-cleavage turned out to be 1.18. Take UAACAGGGGGCCACAGCAGAAGCGUUCACGCCGCGGCCCCUGACAGAUUCUGGUGAAUCUGCGAAUUCCGCUGUAUAUCUC: the self-cleavage turned out to be 0.76. The same measure for UAACAGGGGGCCACAGCAGAAGCGUUCACGACGCAGCCCCUGUCAGAUUCUGGUGAAUCCGCGAGUUCUGCUGUAUAUCUC: 0.17; for UAACAGGGGGCCACAGCAGAAGCGUUCACGACGCAGCCCCUGUCAGAUUCUGGUGAAUCUGCGAAUUCGGCUGUAUAUCUU: 0.24; for UAACAGGGGGCCACAGCAGAAGCGUUCACGACGCAGCCCCUGUCAGAUUCAGGUGAAUCUGCGGAUUCUGCUGUAUACCUC: 0.27. Under UAACAGGGGGCCACAGCAGAAGCGUUCACGCCGCAGCACCUGUGAGAUUCUGGUGAAUCUGCGAAUUCUGCUGUAUAUCUC stands 0.17. As for UAACAGGGGGCCACAGCAGAAGCGUUCACGACGCAGCCCCUGUCAGACUCUGGUGAAUCUGCGAUUUCUGCUGUAUAUCUC, the self-cleavage stood at 0.16. Under UAACAGGGGGCCACAGCAGAAGCGUUCACGCCGUAGCCCCUGUCAGAUUCUGGUGAAUCUGCGAAUUCUGCUGUAUAUCCC stands 0.43.

Consider UAACAGGGGGCCACAGCAGAAGCGUUCACGCCGCAGCCCCUGUCAGGUGCAGGUGAGUCUGCGAAUUCUGCUGUAUGUCAC, for which the self-cleavage amounted to 0.11.

For UAACAGGGGGCCACAGCAGAAGCGUUCACGCCGCGGCCCCUGUCUGAUUCUGGUGUAUCUGCGAAUUCUGCAGUAUAUCUC, the self-cleavage is 0.18. Under UAACAGGGGGCCACAGCAGAAGCGUUCACGCCGCUGCCCCUGUCAGAUUCUGGUGUAUCUGCGUAUUCUGCUGUAUAUCUC stands 0.07. Under UAACAGGGGGCCACAGCAGAAGCGUUCACGACGCAGCCCCUGUCAGAUUCUGGUGAAUCUGCGAAUACUGCUGUAUAUAUC stands 0.23; under UAACAGGGGGCCACAGCAGAAGCGUUCACGACGCAGCCCCUGCCAGAUUCCCGUGAAUCUGCGUAUUCUGCUGUAUAUCUC, 0.33; under UAACAGGGGGCCACAGCAGAAGCGUUCACGCCGCAGCCCCUGUCUGUUUCUGGUGAAUCUGCGAAUUCAGCUGUAUAUCUC, 0.15. As for UAACAGGGGGCCACAGCAGAAGCGUUCACGCCGUAGCCCCUGUCAGACUCUGGUGAAUCUGCGAAUUCUGCUGUAUAUCUC, the self-cleavage was 0.14. UAACAGGGGGCCACAGCAGAAGCGUUCACGACGCAGCCCCUGUCAGAUGCUGCUGAAUCUGCGAAUUCUGCUGUAUAUCUC: the self-cleavage was 0.22.

Regarding UAACAGGGGGCCACAGCAGAAGCGUUCACGCUGCAGCCCCCGUCUGAUUCUGGUGAGUCUGCGAAUUCUGCGGCAUAUCUC, the self-cleavage turned out to be 0.05. For UAACAGGGGGCCACAGCAGAAGCGUUCACGACGCAGCCCCUGUCAGAUUCUGGCGAAUCUGCGAAUUCUGCUGCAUACCUC, the self-cleavage worked out at 0.83. With UAACAGGGGGCCACAGCAGAAGCGUUCACGCCGCGGCCCCUGUCAGAUUCUGGUGAAUCUGCGAAUUCUGCUGUAUACCUC, the self-cleavage is 1.19. The same measure for UAACAGGGGGCCACAGCAGAAGCGUUCACGCCGCUGCCCCUGUCAGAUUCUGGUUAAUCUGCGAAUUCUGCUGUAUAUCUC: 0.23; for UAACAGGGGGCCACAGCAGAAGCGUUCACGCCGCAGCCCCUGUCUGAUCCUGGUGAAUCAGCGAAUUCUGCUGUAUAUCUC: 0.34; for UAACAGGGGGCCACAGCAGAAGCGUUCACGACGCAGCCCCUGUCAGAUUCCGGUGAAUCUGCGAAUUCUGCUGGAUACCUC: 0.78. Under UAACAGGGGGCCACAGCAGAAGCGUUCACGACGCAGCCCCUGCCAGGUUCUGGUGAAUCUGCGAAUUCUGCUGUAUAUCCC stands 0.2; under UAACAGGGGGCCACAGCAGAAGCGUUCACGCCGCAGCCCCUGUCAGAUUCUGGUGAAUCUGCGGAUUCUGCCGUAUAUCAC, 0.77; under UAACAGGGGGCCACAGCAGAAGCGUUCACGACGCAGCCCCCGUCAGAUUCUGGUGAAUCUGCGAAUUCUGCUGCAUAUCUC, 0.54. Under UAACAGGGGGCCACAGCAGAAGCGUUCACGACGCAGCCCCUGACAGAUUCUGGUGAAUCUGCGAAUCCUGCUGUAUAUCCC stands 0.23; under UAACAGGGGGCCACAGCAGAAGCGUUCACGCGGCAGCCCCCGUCUGAUUCUGGUGAAUCUGCGAAUUCCGGUGUAUAUCCC, 0.07. For UAACAGGGGGCCACAGCAGAAGCGUUCACGACGCAGCCCCUGUCAGAUCCUGGUGAAUCUGCGAAUUCUGCUGUGUAUCUC, the self-cleavage was 0.22. Under UAACAGGGGGCCACAGCAGAAGCGUUCACGCCGCAGCCCCUGUCAGAUUCUGGUGAAUCUGCGGAUUCUGCUGUACAUCUC stands 0.74; under UAACAGGGGGCCACAGCAGAAGCGUUCACGCCGCGGCCCCUGUCAGACUCUGGUGAAUCUGCGAAUUCUGCAUUAUAUCUC, 1.01; under UAACAGGGGGCCACAGCAGAAGCGUUCACGACGCAGCCCCUGUCAGAUUCUGGUGAACCUGCGAAUUCCGCCGUAUAUCUC, 0.12. As to UAACAGGGGGCCACAGCAGAAGCGUUCACGCCGCAGCCCCUGUCCGUUUCUGGUGAAUCUGCGAAUUCUGCUGUAUAUCCC, the self-cleavage turned out to be 0.12.

In the case of UAACAGGGGGCCACAGCAGAAGCGUUCACGCCGCAGCCCCUGUCGGAUUCCGGUGAAUCUGCGAAUCCUGCUGUAUACCUC, the self-cleavage came out at 0.47. Under UAACAGGGGGCCACAGCAGAAGCGUUCACGCCGCUGCCCUUGUCAGAUUCUGGUGAAUCUGCGAAUUCUGCUGUAUAUCUC stands 0.12; under UAACAGGGGGCCACAGCAGAAGCGUUCACGCCGCAGCCCCUGUCGGAUUCUGGUGAAUCUGCGAAUCCUGCCGUAUAUCUC, 0.19. Under UAACAGGGGGCCACAGCAGAAGCGUUCACGACGCAGCCCCUGUCAGAUUCUGGAGAAUCUGCGAAUUCUGCCGUAUAUCUC stands 0.68. The same measure for UAACAGGGGGCCACAGCAGAAGCGUUCACGCCGCAGCCCCUGUCAGAUUCUGGUGGAUCUGCGUAUUUUGCUGUAUAUCUC: 0.15; for UAACAGGGGGCCACAGCAGAAGCGUUCACGCCGCAGCCCCUGUCAGAUUCUGGUGGAUCCGCGAAUUCUGCUGUAUAUCUC: 0.26. Take UAACAGGGGGCCACAGCAGAAGCGUUCACGACGCAGCCCCUGACAGAUCCUGGUGAAUCGGCGAAUUCUGCAGUAAAUCUC: the self-cleavage stood at 0.04. With UAACAGGGGGCCACAGCAGAAGCGUUCACGCCGCAGCCCCUGUCGGAUUCUGGUGAAUCUGCGAAUUCUGCUGUAUAUCAC, the self-cleavage is 0.74. With UAACAGGGGGCCACAGCAGAAGCGUUCACGACGCAGCCCCUGUCAGAUUCUGGUGAAUCUGCGAAUCCUGCCGUAUAUCUC, the self-cleavage worked out at 0.35.

Values taken from the RNAGym collection of RNA variant scans (doi:10.1093/nar/gkz1192).
